# The list shows a part of the results. At the low end of the ranking, values are background and their order means little.
# Target: SIX1-Q177R homeodomain (UniProt Q15475)
# Assay: universal protein binding microarray
# Conditions: Universal all-10-mer PBM (8x60K, AMADID 030236), 300 nM GST-tagged protein, Alexa Fluor 488 anti-GST; buffer, salt, pH and temperature not stated; high values mean tight binding; most listed sequences are background and not binding sites; double strand, one strand shown
row,Sequence,binding signal [E-score]
1,GTCATGCA,-0.00443
2,AATAACGC,-0.0441
3,ATCAAGCG,-0.0443
4,ACTGAATC,-0.166
5,ACATCTTC,0.0182
6,ACCGCCCA,0.12
7,AAGGACTC,-0.161
8,ATTTGTAA,-0.0512
9,GCTGTTCA,-0.324
10,GGTCCATA,-0.00669
11,CGGCATGC,-0.261
12,GTGACTCA,-0.101
13,CTTCGCTA,-0.145
14,AACATCAT,-0.202
15,ATCAACCG,-0.22
16,AGCCAGAC,-0.197
17,CTCCCTAA,0.165
18,TGTTCAAA,0.268
19,CGCCTCCC,-0.013
20,ATGAAGAC,-0.066
21,CACTACTA,0.138
22,GATTGACC,0.029
23,ACGTTGAA,0.00194
24,CTATACAG,0.0344
25,AATGCTCG,-0.191

row,Sequence,binding signal [E-score]
1,AGATTCGC,-0.151
2,CGCCATTA,0.0573
3,GAATTATC,-0.261
4,GCCCCAAA,-0.0929
5,GCCCCCAC,-0.00827
6,GGCCGTAA,-0.093
7,CACGACAG,0.174
8,TCAGGTCA,-0.0978
9,AACTCTGG,-0.113
10,AAGTTTAA,-0.0388
11,ACTTTCCA,-0.0105
12,AAATGTAA,-0.173
13,CCAGTCGG,-0.0272
14,ACTCTGGG,0.0675
15,CGACGACA,0.0747
16,CCTAAACA,0.121
17,AGTCAAAC,-0.124
18,ATGTCGAG,-0.108
19,ATTGTAAG,-0.0901
20,TCTGCCAA,-0.234
21,AGATCCGA,-0.192
22,CTATAAGA,-0.178
23,AGTGAAGA,-0.0248
24,TTATCCAA,-0.135
25,GGGAGTGA,0.0455

row,Sequence,binding signal [E-score]
1,CAGTAAGC,-0.0851
2,CCAATTCG,-0.0199
3,CGGTAATC,0.0446
4,ACTAAGAA,-0.0179
5,ACGATGTA,0.0487
6,CCCGGTCC,-0.101
7,CAATCACG,-0.205
8,AAATCTGC,-0.252
9,AGGTCAAT,-0.161
10,AATCTTAT,-0.051
11,CTTTAGGC,-0.0485
12,CGAAGCTC,-0.0697
13,GCCTCTGA,0.0284
14,AGCAAGCG,-0.209
15,CAGTGTTA,0.402
16,CTCACGGA,-0.1
17,AATTTCGA,-0.0872
18,ATAGTGAT,-0.0929
19,TACTTCGA,-0.169
20,ACCGACTG,-0.093
21,AGCAGAGA,-0.128
22,CAACCTTG,-0.0406
23,ACGTTTGG,-0.0473
24,ACCCCTAC,0.294
25,GCGGCAGA,-0.0824

row,Sequence,binding signal [E-score]
1,ATCCTTTA,-0.0924
2,AATACTAA,-0.163
3,ACAGCGCA,-0.109
4,AGTGGGTA,0.151
5,ATCAGTCC,-0.141
6,CACTTGGA,0.139
7,CCCCGTCC,0.0843
8,TAGCAGAA,-0.144
9,ACTCCTCG,0.118
10,AATCATAT,-0.113
11,AGTGCGAT,-0.0903
12,GATGAACA,-0.0636
13,ATTTGCCA,-0.167
14,CCTCGGAG,0.0798
15,GACGGTGC,0.175
16,GTAACTTA,0.0435
17,CACTGATC,0.136
18,AGGCGAGA,-0.223
19,ATCTATAG,-0.00374
20,AAGGCTTA,-0.276
21,CGCGCCCG,-0.0876
22,CGCAGTAG,-0.0157
23,ATCTAGAT,-0.214
24,ATTCCCGC,-0.165
25,ACATTTCC,-0.00185

row,Sequence,binding signal [E-score]
1,AATATAGT,-0.192
2,CTTCTGTA,-0.155
3,GGTGTAAC,0.482
4,ACTATGCA,0.0836
5,GAGCTTAA,-0.18
6,ACACCATA,0.459
7,ATTTATAA,-0.0933
8,CCATAACA,0.214
9,CCTACACA,0.18
10,CATACAGA,-0.156
11,CTTGACCA,-0.123
12,AGATAGAG,-0.124
13,ATCGTTAG,-0.0369
14,CACATTAG,-0.0111
15,GGCGCAGA,-0.185
16,CAAGTACA,0.207
17,GGCAGGTA,0.0271
18,ATATCGGC,-0.127
19,GTGTAAAC,0.445
20,AGCCATAC,-0.121
21,AAGTAACC,-0.0953
22,AACACCAC,0.483
23,CCTGTGCC,-0.131
24,GGCACAGA,-0.125
25,AAATCCGG,0.0193

row,Sequence,binding signal [E-score]
1,AAATCTAA,0.0496
2,GGATGGCA,-0.0819
3,AGGACTTG,-0.0792
4,AATACATA,0.0735
5,GCGAAAAC,-0.0713
6,ATAGTCAA,-0.239
7,AATTCTAA,0.0392
8,AGATTTGA,-0.121
9,GTTAACTA,-0.00156
10,GTCTGTCA,-0.193
11,GCAAGAGC,-0.103
12,ACAGGCAA,-0.144
13,ACGCGGAT,0.108
14,CCAACCGG,-0.0307
15,GCAGGTCC,-0.0616
16,ACGCGCGT,-0.0765
17,TGGTCTAA,-0.122
18,ACTGATCG,0.00294
19,CAGTTGAG,-0.179
20,AGTAGGCC,-0.101
21,TCATGGCA,-0.113
22,ACCACGAA,0.111
23,ATTACTGG,-0.149
24,CAGGGATC,0.181
25,GAAGTTCC,-0.263

row,Sequence,binding signal [E-score]
1,AAGCGGGC,-0.229
2,GCGGACAA,-0.181
3,CACATTCG,0.0353
4,CCCAGGTA,0.203
5,GAAACCCC,0.181
6,ACTAACAA,0.00855
7,ACCGGTAG,0.0653
8,GGAAGACC,-0.11
9,CATAAAGC,-0.26
10,GTAGTGAC,0.26
11,GTCGCTCA,-0.112
12,TCTATGAA,-0.0351
13,CCTTAGGC,0.092
14,CAGAGAAG,-0.19
15,GCATAGGC,-0.146
16,CAGTACGC,0.0598
17,CGCTTTAA,-0.0982
18,GGGCTACA,0.0987
19,AAATTACA,0.0701
20,GTGCACCA,0.246
21,ACGTATAT,-0.0722
22,ACCATTCA,0.129
23,CCATTCTA,0.0416
24,ACAGCTGT,-0.346
25,CTTTTCTC,-0.252

row,Sequence,binding signal [E-score]
1,GAACTATA,-0.172
2,CAGTCCGA,-0.13
3,GCGTGCAC,0.0793
4,ACCCGAGT,0.259
5,CTAAGTGC,-0.0858
6,CCATAGCG,0.044
7,ACGCTCAA,-0.158
8,AGTCCTAT,-0.142
9,CCATTCCC,-0.16
10,CACTTAAC,0.101
11,ACTATGGG,0.0873
12,ATACCACA,0.095
13,ATTTGTCC,-0.203
14,CACGTCAA,0.144
15,ACCGCCAT,-0.182
16,ATTCGAGG,-0.119
17,AGTTACCA,0.0232
18,AATGAGGC,-0.038
19,ATATATAC,0.154
20,CCATGATA,0.0428
21,ATCACAGC,-0.124
22,ACGGCAAG,0.0711
23,ATCACCTG,0.00103
24,TACTACAA,-0.0955
25,ATGTGTGC,0.0297

row,Sequence,binding signal [E-score]
1,CCAACAAC,0.211
2,CCGGGCAC,0.0302
3,CAACCAAG,0.0319
4,CTTCCCTC,-0.105
5,TATTGAGA,-0.0629
6,ACGAAATG,-0.0821
7,AAGATCAC,-0.122
8,CTTCGACA,0.228
9,AGGAGACA,-0.0261
10,CCGAGCTC,-0.201
11,ATTAGTAG,-0.0264
12,CTTGGTTA,0.00343
13,AAGCATCC,-0.238
14,CCAGGAAA,-0.0977
15,CGGTCCTA,-0.0476
16,ATTGAATA,-0.17
17,CGGTTGCC,-0.139
18,CCATTAGC,-0.0639
19,CGACATCA,-0.0385
20,CCAGATGG,-0.0118
21,GTGATGAA,-0.197
22,CTCGAAAC,-0.157
23,CTACGGTA,0.00271
24,ATGGATAC,0.278
25,TAGTAGCA,0.159

row,Sequence,binding signal [E-score]
1,GTAGTATA,0.0458
2,CCGGAATA,0.0294
3,AGACCCAC,-0.116
4,AGTTGTAC,0.0218
5,TCGACAAA,-0.115
6,ATTGAGGC,-0.237
7,GCGTAGTA,-0.0758
8,AGACATAA,-0.0483
9,TTAGCAAA,0.0029
10,ATACGGAC,0.0466
11,CACTCACG,0.222
12,CGTGGTTA,-0.0901
13,CCCAGCCG,0.0778
14,ACGTCGGG,0.143
15,AGCGGGAA,-0.302
16,GAGCACGC,0.104
17,GCTGTAAA,-0.39
18,AATATTGG,0.0973
19,GAAGGGTA,0.169
20,AACAAAGG,-0.131
21,AGATGCGC,-0.26
22,GGCTCAGA,0.0505
23,GCTTAGTA,0.0166
24,TGGAGCCA,-0.151
25,ACAGACTC,-0.14

row,Sequence,binding signal [E-score]
1,CATGTCGC,0.145
2,CCGAAAAG,-0.0765
3,ATTTCCGG,-0.0158
4,GGACTGCC,-0.0957
5,CCGTAAGG,-0.0914
6,ACGTGACG,-0.0125
7,GGGTATCA,0.39
8,CGCTAGAA,-0.214
9,CGACATCG,-0.0467
10,CAGTAATC,-0.106
11,ACGTCCGC,-0.203
12,AGGTCATA,-0.193
13,AAATAACT,0.0176
14,ATTCCCAG,-0.136
15,CAGTCGTA,-0.174
16,CAATCGAG,-0.019
17,CACCGTGC,0.327
18,CTTTTAGA,-0.327
19,AGTTAGAA,-0.013
20,GGGAAGTA,-0.173
21,AACGGGAC,-0.0336
22,TCCGAGCA,-0.102
23,AGGTAGTC,-0.15
24,GACTATTA,-0.121
25,CCAAAGAC,-0.0792

row,Sequence,binding signal [E-score]
1,CGCCCCAA,0.0537
2,GATGCTCC,-0.234
3,TGTCATAA,0.199
4,AAAAATCA,-0.0976
5,AACGAACT,-0.239
6,ACCGTTCT,-0.0363
7,AAGGAGAT,-0.23
8,GAATCCCA,0.0697
9,GCTGCTCC,-0.108
10,GTCATCGA,0.0437
11,ATGATCTG,0.0531
12,AGCACCAC,0.272
13,ATTATCCC,-0.0543
14,ATGGGTAG,0.139
15,TACTCACA,0.0277
16,GAAAGTAC,-0.0609
17,CTAATATA,-0.00496
18,CAGGCCGG,-0.0398
19,TATGTTGA,-0.0868
20,GACAATAA,-0.05
21,ATTCAAAG,-0.364
22,ATCTCAGG,-0.195
23,AAATTGCA,-0.178
24,ATGGGATG,-0.15
25,AGAAATGC,-0.00611

row,Sequence,binding signal [E-score]
1,GCACGCGA,0.0562
2,CGCGGCCG,-0.0482
3,CCATGTGC,-0.0955
4,GCGGGCCA,-0.133
5,AGACAGGG,0.0258
6,GCCGCGTA,-0.0196
7,CCTTATTA,-0.0628
8,ACACGGAA,0.398
9,AAGCGTTA,-0.166
10,AACGTATC,-0.0789
11,ACTTCGTC,-0.0524
12,AGCGAGGG,0.102
13,AGCACCTA,0.0399
14,AGCTCTAT,-0.125
15,CCGCGGTC,-0.0471
16,AGCCCTTC,-0.249
17,CTACTTTA,-0.224
18,GCGAATCA,-0.259
19,AATCACAC,0.348
20,ACGTGAGC,-0.191
21,AACTCCTT,-0.125
22,ACGCCCTC,0.119
23,GTCCGGAC,-0.00607
24,GTGTCTCA,0.371
25,GGTGGAAC,-0.168

row,Sequence,binding signal [E-score]
1,AGCTACGC,-0.105
2,CTCAATCA,-0.151
3,GAGAGTAA,-0.0729
4,CTGAAACA,-0.0361
5,GCAATTGA,-0.0892
6,AGTACATG,0.00515
7,AGAAACAA,-0.274
8,ACGCGTGA,0.0924
9,GTGAGCGA,0.00318
10,ACAGTGCC,-0.112
11,TAGGTTGA,-0.0145
12,CTGAGCAA,-0.137
13,GTATGAGA,0.00311
14,CAGGCGCG,-0.203
15,AGAGGTGG,-0.182
16,ATATGAGA,0.0136
17,ATCCGGCC,-0.0711
18,AGTGGAAC,-0.0477
19,ATAAATCG,-0.326
